Values marked as one replicate rest on one cluster of the flow cell; about a third of the high ones do not repeat.
Tested on: ATP
Assay: switch fluorescence ratio, 500 uM ATP over buffer (Cy3 cluster intensity, sum of 5 cycles each) (fold (ratio)); higher = stronger signal-on switching upon ATP binding; sequences stand for … in TCGTCGGCAGCGTCAGATGTGTATAAGAGACAGTTTTTTTTTTTTTTTTTTTTTTTTT…TC
Conditions: aptamer strand: ATP DNA aptamer (quencher-CACCTGGGGGAGTATTGCGGAGGAAGG + anchor), 100 nM annealed; ATP concentration: 500 uM; one replicate
How it was run: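 Between each of five buffer/ATP cycles, the flow-cell was stripped with NaOH and re-annealed. Each cycle imaged Cy3-labelled switching-strand clusters, annealed to 100 nM quencher-labelled ATP aptamer on a modified Illumina MiSeq flow-cell, first in selection buffer and then after 15 min with 500 uM ATP at 22 °C. The fluorescence ratio is summed target-cycle over summed buffer-cycle Cy3 intensity per cluster, averaged per switch-domain sequence, with clusters outside 100-1000 RFU excluded.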
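Further: ATP exposure 15 min at 22 °C before imaging.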

| Sequence | switch fluorescence ratio |
| --- | --- |
| GATTTCTTCT | 0.96 |
| AGTGGGTGTG | 1.08 |
| TGAGAGCCTG | 0.996 |
| AATGCCACT | 0.999 |
| AGAGACGGAG | 0.966 |
| CGTCTGCTTG | 1.03 |
| GTCCTTAATG | 0.99 |
| CAGACGGCTT | 1.01 |
| AAGGGCGAGT | 1.04 |
| GGAATAGCAC | 1.03 |
| AGTCATATTG | 0.99 |
| CATTAGAAAG | 0.984 |
| TGAGTCGCGC | 0.955 |
| ACATTAGGCG | 1.07 |
| CGTTGGATCC | 1.03 |
| TCTTTGC | 1.15 |
| GCCGGGCAGG | 0.994 |
| TCCAAACTGA | 0.945 |
| TAATTCGACG | 0.979 |
| TTCCTGCCCA | 1.12 |
| GTAAACGAAA | 1.01 |
| ATTGTACTG | 1.12 |
| GCTGATGCTG | 1 |
| AGCGTTTAGC | 0.982 |
| GACACTCTGG | 0.958 |
| AGGTACTTTA | 1.01 |

| Sequence | switch fluorescence ratio |
| --- | --- |
| TAGCTCGCTG | 0.969 |
| GATAGACATA | 1.07 |
| TTACGACGGT | 1.24 |
| AAAATGATTG | 0.99 |
| AAGGGGCGAC | 1.05 |
| TCTTGGTTA | 0.978 |
| TAATGATCGT | 0.982 |
| CAAAGCTTTT | 1.03 |
| ACTCGCGTCC | 1.28 |
| GAACCTGCAT | 1.22 |
| TGCCACGCAG | 0.985 |
| CTTAAAGAAT | 1.38 |
| GTCTGCAGTG | 0.983 |
| AATTGTCTG | 1.02 |
| GATAACATTT | 0.991 |
| TAGGCGTC | 1.02 |
| TCTCCCCGGG | 3.33 |
| CTTTTTTGGC | 1.08 |
| GATGGGTCTT | 0.973 |
| TGGTGTAATT | 1.05 |
| ATTGGGAAAT | 1.03 |
| ATACTATGCG | 0.935 |
| GTTTCGGAAT | 1.08 |
| GGTATCTAAC | 1.02 |
| GGAGAAAAGT | 0.988 |
| TAACCTTTT | 1.08 |

| Sequence | switch fluorescence ratio |
| --- | --- |
| TTTTTGGGG | 1.02 |
| GGCTAATGCC | 1.03 |
| AGTAGATAAC | 1.01 |
| CGGGAGTTGG | 1.03 |
| GAACATAGGG | 0.988 |
| CTCAGTTTGG | 1.02 |
| GATCGCCGGC | 1.04 |
| TTTGCGACGC | 1.17 |
| AATCTTTCAA | 1.02 |
| GTGCATGCAC | 1.02 |
| TGTAGAGGAA | 1 |
| AAGGCACGCC | 0.959 |
| TTTAGTCCTG | 0.987 |
| AGCTTCGCGG | 0.973 |
| TGCGGTACTA | 1.15 |
| ACACCGTTA | 1.05 |
| GCAGTCCAGT | 0.984 |
| ATTATTAACA | 0.935 |
| ATGCCGGTCC | 1.01 |
| CCGGCCCGGT | 1.05 |
| GTGAAGGGCG | 1.01 |
| CAATGCTCCA | 2.35 |
| CCGGTGCCTG | 0.984 |
| TCGCTTAAT | 1.06 |
| AATATTCAGG | 1.01 |
| TGTTAGGAAG | 0.965 |

| Sequence | switch fluorescence ratio |
| --- | --- |
| CTCATGTTTT | 0.976 |
| ACTAAGGCCG | 1.14 |
| AACCTTGTGT | 0.97 |
| GGTTGCGGGC | 1.03 |
| ATATACAAGT | 1.02 |
| TGTTCTTATG | 0.999 |
| TTCTACACAA | 1.77 |
| ATCAGGAACT | 1.03 |
| ACCGGTCAAG | 0.998 |
| CAACAAATCA | 1.03 |
| AAACGTTCGA | 1.08 |
| TTGAGGACA | 1.01 |
| AGATTGGGCC | 1 |
| GCTGTTTGGA | 1.01 |
| AGAGTGGGTC | 0.925 |
| CGATTCAGTG | 0.959 |
| CCATTACATC | 1 |
| TTATTAATAA | 1 |
| CGGCACGGAG | 1 |
| TGGGATTCTT | 1.01 |
| TTACGCAGAG | 1.28 |
| TGTGTCCTT | 0.997 |
| TACTGACGCC | 1.32 |
| CGTTCACA | 1.05 |
| CGATTGCTTA | 1.04 |
| ATTCATTGTT | 0.972 |

| Sequence | switch fluorescence ratio |
| --- | --- |
| TCACAGAGGT | 1.03 |
| CGAGGACCGA | 1.03 |
| TTAGCGCGGA | 0.992 |
| TAGGGATAAG | 1 |
| TCCCATACAT | 1.04 |
| GGTTTTGAAT | 1.01 |
| AGTAGCTCAG | 1.02 |
| TTAATGGGGA | 1.06 |
| TCTAGCTTCG | 1.04 |
| ATATATAATA | 1.01 |
| GCAATTAGGA | 1.1 |
| TTGGATCATA | 0.982 |
| CCATAGTTCT | 0.991 |
| TTATTGACT | 1.05 |
| AACATTTGCA | 1.03 |
| CCAAGTATGC | 1.01 |
| CCGTGACTAG | 1.02 |
| CCCTCACGCT | 2.21 |
| TACCGAGTTT | 0.981 |
| ACATAGACCC | 1.11 |
| AACCAGGTGG | 1.47 |
| TTCCGGGATA | 1.31 |
| CAAATATCGG | 0.99 |
| ATTCATTCGA | 1.04 |
| CTTGGTGAAG | 0.979 |
| TTGCAAGCAA | 2.51 |

| Sequence | switch fluorescence ratio |
| --- | --- |
| TCCGTTGAAG | 1.01 |
| ACATTATCGA | 1.03 |
| TGCCTGATAG | 0.991 |
| GCATGGATCT | 0.982 |
| CCGTTCACAG | 1.17 |
| CCCTGCCATA | 2.31 |
| CAGTGAGCAA | 3.69 |
| AGCCCGTGAC | 1.08 |
| TTATAAGTG | 0.982 |
| AGAAAGTGTT | 0.98 |
| CGGTAGCGTT | 0.996 |
| ATTCTGTATC | 0.954 |
| CCACAAAAAC | 1.04 |
| TAGAAGACCG | 1.03 |
| GGTGGTTCGG | 0.982 |
| AAACGTGTCT | 1.05 |
| ATCGGATGAG | 0.982 |
| CGATAGTGTA | 1.01 |
| GCCACAACCG | 1.08 |
| GGATATTTGA | 1.02 |
| GCGTTTCAAA | 1.03 |
| TGACACTGTT | 0.996 |
| TAGTATTTCA | 0.997 |

— the supplement of paper PMC10126150
